Data taken from the supplement of paper PMC11876631.
± gives the standard deviation of the averaged measurements. Laboratory Escherichia coli strains with one amino-acid change in an essential protein, pooled on minimal glucose agar with carbenicillin or gentamicin at twice the control MIC (plus kanamycin and chloramphenicol for the plasmids), 48 h. Fold change of barcode share against drug-free plates; higher = less susceptible. Active = above 20 in both replicates (the paper's putatively resistant). '<' = one read or none on drug, '>' = one read or none on a drug-free plate. Shares are relative, so most strains fall below 1 when a few take over. Listed are strains with at least 15 reads on both drug-free plates, and hits; most hits rest on fewer reference reads. Replicate rank correlation about 0.5. Edits are read from barcodes.

B1: argG L114W (protein)
chain: MTTILKHLPVGQRIGIAFSGGLDTSAALLWMRQKGAVPYAYTANLGQPDEEDYDAIPRRAMEYGAENARLIDCRKQLVAEGIAAIQCGAFHNTTGGLTYFNTTPLGRAVTGTMWVAAMKEDGVNIWGDGSTYKGNDIERFYRYGLLTNAELQIYKPWLDTDFIDELGGRHEMSEFMIACGFDYKMSVEKAYSTDSNMLGATHEAKDLEYLNSSVKIVNPIMGVKFWDESVKIPAEEVTVRFEQGHPVALNGKTFSDDVEMMLEANRIGGRHGLGMSDQIENRIIEAKSRGIYEAPGMALLHIAYERLLTGIHNEDTIEQYHAHGRQLGRLLYQGRWFDSQALMLRDSLQRWVASQITGEVTLELRRGNDYSILNTVSENLTYKPERLTMEKGDSVFSPDDRIGQLTMRNLDITDTREKLFGYAKTGLLSSSAASGVPQVENLENKGQ
B2: guaB M359A (protein)
chain: MLRIAKEALTFDDVLLVPAHSTVLPNTADLSTQLTKTIRLNIPMLSAAMDTVTEARLAIALAQEGGIGFIHKNMSIERQAEEVRRVKKHESGVVTDPQTVLPTTTLREVKELTERNGFAGYPVVTEENELVGIITGRDVRFVTDLNQPVSVYMTPKERLVTVREGEAREVVLAKMHEKRVEKALVVDDEFHLIGMITVKDFQKAERKPNACKDEQGRLRVGAAVGAGAGNEERVDALVAAGVDVLLIDSSHGHSEGVLQRIRETRAKYPDLQIIGGNVATAAGARALAEAGCSAVKVGIGPGSICTTRIVTGVGVPQITAVADAVEALEGTGIPVIADGGIRFSGDIAKAIAAGASAVAVGSMLAGTEESPGEIELYQGRSYKSYRGMGSLGAMSKGSSDRYFQSDNAADKLVPEGIEGRVAYKGRLKEIIHQQMGGLRSCMGLTGCGTIDELRTKAEFVRISGAGIQESHVHDVTITKESPNYRLGS
B3: guaB M359Q (protein)
chain: MLRIAKEALTFDDVLLVPAHSTVLPNTADLSTQLTKTIRLNIPMLSAAMDTVTEARLAIALAQEGGIGFIHKNMSIERQAEEVRRVKKHESGVVTDPQTVLPTTTLREVKELTERNGFAGYPVVTEENELVGIITGRDVRFVTDLNQPVSVYMTPKERLVTVREGEAREVVLAKMHEKRVEKALVVDDEFHLIGMITVKDFQKAERKPNACKDEQGRLRVGAAVGAGAGNEERVDALVAAGVDVLLIDSSHGHSEGVLQRIRETRAKYPDLQIIGGNVATAAGARALAEAGCSAVKVGIGPGSICTTRIVTGVGVPQITAVADAVEALEGTGIPVIADGGIRFSGDIAKAIAAGASAVQVGSMLAGTEESPGEIELYQGRSYKSYRGMGSLGAMSKGSSDRYFQSDNAADKLVPEGIEGRVAYKGRLKEIIHQQMGGLRSCMGLTGCGTIDELRTKAEFVRISGAGIQESHVHDVTITKESPNYRLGS
B4: argG L114Q (protein)
chain: MTTILKHLPVGQRIGIAFSGGLDTSAALLWMRQKGAVPYAYTANLGQPDEEDYDAIPRRAMEYGAENARLIDCRKQLVAEGIAAIQCGAFHNTTGGLTYFNTTPLGRAVTGTMQVAAMKEDGVNIWGDGSTYKGNDIERFYRYGLLTNAELQIYKPWLDTDFIDELGGRHEMSEFMIACGFDYKMSVEKAYSTDSNMLGATHEAKDLEYLNSSVKIVNPIMGVKFWDESVKIPAEEVTVRFEQGHPVALNGKTFSDDVEMMLEANRIGGRHGLGMSDQIENRIIEAKSRGIYEAPGMALLHIAYERLLTGIHNEDTIEQYHAHGRQLGRLLYQGRWFDSQALMLRDSLQRWVASQITGEVTLELRRGNDYSILNTVSENLTYKPERLTMEKGDSVFSPDDRIGQLTMRNLDITDTREKLFGYAKTGLLSSSAASGVPQVENLENKGQ
B5: argG V115A (protein)
chain: MTTILKHLPVGQRIGIAFSGGLDTSAALLWMRQKGAVPYAYTANLGQPDEEDYDAIPRRAMEYGAENARLIDCRKQLVAEGIAAIQCGAFHNTTGGLTYFNTTPLGRAVTGTMLAAAMKEDGVNIWGDGSTYKGNDIERFYRYGLLTNAELQIYKPWLDTDFIDELGGRHEMSEFMIACGFDYKMSVEKAYSTDSNMLGATHEAKDLEYLNSSVKIVNPIMGVKFWDESVKIPAEEVTVRFEQGHPVALNGKTFSDDVEMMLEANRIGGRHGLGMSDQIENRIIEAKSRGIYEAPGMALLHIAYERLLTGIHNEDTIEQYHAHGRQLGRLLYQGRWFDSQALMLRDSLQRWVASQITGEVTLELRRGNDYSILNTVSENLTYKPERLTMEKGDSVFSPDDRIGQLTMRNLDITDTREKLFGYAKTGLLSSSAASGVPQVENLENKGQ
B6: argG V115Q (protein)
chain: MTTILKHLPVGQRIGIAFSGGLDTSAALLWMRQKGAVPYAYTANLGQPDEEDYDAIPRRAMEYGAENARLIDCRKQLVAEGIAAIQCGAFHNTTGGLTYFNTTPLGRAVTGTMLQAAMKEDGVNIWGDGSTYKGNDIERFYRYGLLTNAELQIYKPWLDTDFIDELGGRHEMSEFMIACGFDYKMSVEKAYSTDSNMLGATHEAKDLEYLNSSVKIVNPIMGVKFWDESVKIPAEEVTVRFEQGHPVALNGKTFSDDVEMMLEANRIGGRHGLGMSDQIENRIIEAKSRGIYEAPGMALLHIAYERLLTGIHNEDTIEQYHAHGRQLGRLLYQGRWFDSQALMLRDSLQRWVASQITGEVTLELRRGNDYSILNTVSENLTYKPERLTMEKGDSVFSPDDRIGQLTMRNLDITDTREKLFGYAKTGLLSSSAASGVPQVENLENKGQ
B7: argG V115P (protein)
chain: MTTILKHLPVGQRIGIAFSGGLDTSAALLWMRQKGAVPYAYTANLGQPDEEDYDAIPRRAMEYGAENARLIDCRKQLVAEGIAAIQCGAFHNTTGGLTYFNTTPLGRAVTGTMLPAAMKEDGVNIWGDGSTYKGNDIERFYRYGLLTNAELQIYKPWLDTDFIDELGGRHEMSEFMIACGFDYKMSVEKAYSTDSNMLGATHEAKDLEYLNSSVKIVNPIMGVKFWDESVKIPAEEVTVRFEQGHPVALNGKTFSDDVEMMLEANRIGGRHGLGMSDQIENRIIEAKSRGIYEAPGMALLHIAYERLLTGIHNEDTIEQYHAHGRQLGRLLYQGRWFDSQALMLRDSLQRWVASQITGEVTLELRRGNDYSILNTVSENLTYKPERLTMEKGDSVFSPDDRIGQLTMRNLDITDTREKLFGYAKTGLLSSSAASGVPQVENLENKGQ
B8: hemA V188A (protein)
chain: MTLLALGINHKTAPVSLRERVSFSPDKLDQALDSLLAQPMVQGGVVLSTCNRTELYLSVEEQDNLQEALIRWLCDYHNLNEEDLRKSLYWHQDNDAVSHLMRVASGLDSLVLGEPQILGQVKKAFADSQKGHMKASELERMFQKSFSVAKRVRTETDIGASAVSVAFAACTLARQIFESLSTVTVLLAGAGETIELVARHLREHKVQKMIIANRTRERAQILADEVGAEVIALSDIDERLREADIIISSTASPLPIIGKGMVERALKSRRNQPMLLVDIAVPRDVEPEVGKLANAYLYSVDDLQSIISHNLAQRKAAAVEAETIVAQETSEFMAWLRAQSASETIREYRSQAEQVRDELTAKALAALEQGGDAQAIMQDLAWKLTNRLIHAPTKSLQQAARDGDNERLNILRDSLGLE
B9: hemA V188W (protein)
chain: MTLLALGINHKTAPVSLRERVSFSPDKLDQALDSLLAQPMVQGGVVLSTCNRTELYLSVEEQDNLQEALIRWLCDYHNLNEEDLRKSLYWHQDNDAVSHLMRVASGLDSLVLGEPQILGQVKKAFADSQKGHMKASELERMFQKSFSVAKRVRTETDIGASAVSVAFAACTLARQIFESLSTVTVLLWGAGETIELVARHLREHKVQKMIIANRTRERAQILADEVGAEVIALSDIDERLREADIIISSTASPLPIIGKGMVERALKSRRNQPMLLVDIAVPRDVEPEVGKLANAYLYSVDDLQSIISHNLAQRKAAAVEAETIVAQETSEFMAWLRAQSASETIREYRSQAEQVRDELTAKALAALEQGGDAQAIMQDLAWKLTNRLIHAPTKSLQQAARDGDNERLNILRDSLGLE
B10: hemA V188Q (protein)
chain: MTLLALGINHKTAPVSLRERVSFSPDKLDQALDSLLAQPMVQGGVVLSTCNRTELYLSVEEQDNLQEALIRWLCDYHNLNEEDLRKSLYWHQDNDAVSHLMRVASGLDSLVLGEPQILGQVKKAFADSQKGHMKASELERMFQKSFSVAKRVRTETDIGASAVSVAFAACTLARQIFESLSTVTVLLQGAGETIELVARHLREHKVQKMIIANRTRERAQILADEVGAEVIALSDIDERLREADIIISSTASPLPIIGKGMVERALKSRRNQPMLLVDIAVPRDVEPEVGKLANAYLYSVDDLQSIISHNLAQRKAAAVEAETIVAQETSEFMAWLRAQSASETIREYRSQAEQVRDELTAKALAALEQGGDAQAIMQDLAWKLTNRLIHAPTKSLQQAARDGDNERLNILRDSLGLE
B11: hemA V188D (protein)
chain: MTLLALGINHKTAPVSLRERVSFSPDKLDQALDSLLAQPMVQGGVVLSTCNRTELYLSVEEQDNLQEALIRWLCDYHNLNEEDLRKSLYWHQDNDAVSHLMRVASGLDSLVLGEPQILGQVKKAFADSQKGHMKASELERMFQKSFSVAKRVRTETDIGASAVSVAFAACTLARQIFESLSTVTVLLDGAGETIELVARHLREHKVQKMIIANRTRERAQILADEVGAEVIALSDIDERLREADIIISSTASPLPIIGKGMVERALKSRRNQPMLLVDIAVPRDVEPEVGKLANAYLYSVDDLQSIISHNLAQRKAAAVEAETIVAQETSEFMAWLRAQSASETIREYRSQAEQVRDELTAKALAALEQGGDAQAIMQDLAWKLTNRLIHAPTKSLQQAARDGDNERLNILRDSLGLE

Target: Escherichia coli (laboratory strain)
Test: barcode share on antibiotic plates over drug-free plates; higher = less susceptible
Details: antibiotic: carbenicillin; 2× MIC (3.1 µg/mL)
Protocol: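 A pool of E. coli strains, each edited to carry one amino-acid change in an essential protein, was grown for 48 h on minimal glucose agar with or without antibiotic; strain barcodes were sequenced; mean of two replicates.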

Protein	fold change of barcode share
B1	0.709 ± 0.067
B2	0.313 ± 0.046
B3	0.379 ± 0.02
B4	0.3577 ± 0.00088
B5	0.362 ± 0.16
B6	1.03 ± 0.11
B7	0.42 ± 0.054
B8	0.419 ± 0.098
B9	0.456 ± 0.13
B10	0.537 ± 0.14
B11	0.649 ± 0.17

Same assay, conditions: antibiotic: gentamicin; 2× MIC (MIC 0.45 µg/mL)

Protein	fold change of barcode share
B1	0.289 ± 0.34
B2	< 0.00486
B3	0.00841 ± 0.0031
B4	0.238 ± 0.3
B5	0.0084 ± 0.0038
B7	0.00477 ± 0.0024
B8	0.00752 ± 0.0056
B9	3.26 ± 0.2
B10	0.00479 ± 0.00073
B11	159 ± 210
